These results are taken from patent US20170066797A1, “WITHAFERIN A ANALOGS AND USES THEREOF” (Whitehead Institute for Biomedical Research, priority 2008, published 2017).

Data set [1] concerns Human umbilical vein endothelial cells (HUVEC). As to the kind of experiment: Endothelial cell network (tube) formation on Matrigel. The settings on record: 16 h, FIG. 6. The class given is cell-based. On the procedure: FIG. 6. […] Human umbilical vein endothelial cells (HUVEC) were seeded into Matrigel-coated wells and allowed to adhere for 1 h. Adherent cells were exposed to the indicated concentrations of withaferin A, epi-withaferin A (α-WA) or an equal volume of solvent vehicle (DMSO) for 16 h. Cells were washed 1× in PBS and fixed to visualize tube formation by light microscopy.

Data set [2] has as its system PC-3M (prostate) tumor cells. As to the kind of experiment: Matrigel tumor cell invasion/migration, PC-3M. The class given is cell-based. The settings on record: 24 hours, FIG. 4. On the procedure:
(§1) FIG. 4. Inhibition of tumor cell invasion/migration. PC-3M (prostate) and CHP-100 (Ewing's sarcoma) tumor cells were seeded into Matrigel-coated invasion chambers and exposed to increasing concentrations of withaferin A (WA) or DMSO for 24 hours. Relative viable cell number and invasion were determined by MTT assay. Results are presented as % compared to wells exposed to DMSO alone. Results shown are representative of three independent experiments.

For data set [3], the system named is Primary human astrocytes. As to the kind of experiment: Gene expression profiling of astrocytes (Agilent whole genome arrays). The conditions noted are these: 1 μM, 6 hours. The class given is cell-based. On the procedure:
Primary human astrocytes were exposed to WA (1 μM) or an equal volume of DMSO solvent for 6 hours. RNA was isolated by phenol-chloroform extraction, reverse transcribed, labeled and hybridized to Agilent dual-color human whole genome arrays followed by standard analysis for relative mRNA levels.

The subject of data set [4] is PC12 cells expressing HttQ103. As to the kind of experiment: PC12 cell culture model of Huntington's disease (HttQ103), MTT.
For data set [5], the system named is CHP-100 (Ewing's sarcoma) tumor cells. As to the kind of experiment: Matrigel tumor cell invasion/migration, CHP-100. The data set is classed as cell-based. The settings on record: 24 hours, FIG. 4. As for the experimental part: as §1
Data set [6] has as its system WI-38 fibroblasts. As to the kind of experiment: Detection of F-actin aggregation (phalloidin staining). The class given is cell-based, Human. The conditions noted are these: 4 μM, 4 or 24 h, FIG. 3. On the procedure: FIGS. 3A-3D. Induction of F-actin aggregation. Following incubation with test compounds for the indicated intervals, WI-38 fibroblasts were fixed and stained with fluorescently-labeled phalloidin (green signal) to visualize the actin cytoskeleton. Cells were counterstained with DAPI (blue signal) to identify their nuclei. All images were acquired using the same magnification and exposure conditions. Data are representative of two independent experiments. (A) DMSO, 24 h incubation. (B) Withaferin A, 4 h. (C) 2,3-Dihydrowithaferin A-3β-O-sulfate, 4 h. (D) 2,3-Dihydrowithaferin A-3β-O-sulfate, 24 h.
Cells were seeded in 8-well chamber slides at a density of 2×10^4 cells per well and allowed to adhere for 48 h. Compounds 1 and 2 were freshly prepared as 5 mM stock solutions in DMSO and applied to cells at a final concentration of 4 μM in RPMI culture medium supplemented with 10% fetal bovine serum, Glutamax™, and penicillin/streptomycin. Control wells were treated with an equal volume of DMSO, not exceeding 0.2% in culture media. Cells were incubated for 4 or 24 h in the continuous presence of the indicated compounds, then washed twice with PBS, fixed with 4% paraformaldehyde/PBS (pH 7.6), and permabilized with 0.1% triton-X 100/PBS. […]

Data set [7] concerns Hsp72. As to the kind of experiment: HSF1-dependent Hsp72 induction, immunoblot in Hsf1(-) and Hsf1(+) embryo fibroblasts. The class given is cell-based, mouse. The conditions noted are these: 2 μM overnight, FIG. 9. As for the experimental part:
FIG. 9. HSF1-dependent induction of the heat shock response. Immortalized mouse embryo fibroblasts derived from mice in which Hsf1 was knocked out [Hsf1(−)] or their wild type littermates; [Hsf1(+)] were exposed overnight to DMSO (0.2%) (lanes 1 and 4), geldanamycin (GA, 0.5 μM) (lanes 2 and 5), or withaferin A (WA) (2 μM) (lanes 3 and 6). Equal amounts of total cellular protein were immunoblotted for relative levels of a highly inducible heat shock protein (Hsp72).
Immortalized mouse embryo fibroblasts derived from homozygous Hsf1 knockout mice or their wild type littermates were exposed overnight to equitoxic concentrations of 1 or the known heat shock-inducing Hsp90 inhibitor gendanamycin. Whole cell lysates were prepared in non-ionic detergent buffer and immunoblotted for relative levels of Hsp72, a highly inducible member of the Hsp70 family of molecular chaperones, using monoclonal antibody C92F3A-5 (StressMarq Biosciences, Victoria, BC). Reactivity was detected using peroxidase-conjugated secondary antibody and chemiluminescent detection. To evaluate the relative ability of compounds to induce a heat shock response at the transcriptional level, a reporter cell line was used as previously described (Turbyville, et al., J. Nat. Prod. (2006) 69: 178-184, incorporated herein by reference). […]

Data set [8] concerns CHP-100 tumor xenografts. As to the kind of experiment: Tumor vascularization (microvessel density, CD-34) in CHP-100 xenografts. The data set is classed as in vivo, SCID mice. The settings on record: IP 7.5 mg/kg for 2 days and 3.5 mg/kg for 8 days; P value <0.01 vs DMSO, FIG. 7. On the procedure:
FIG. 7. […] SCID mice bearing CHP-100 tumor xenografts were treated with IP injections of DMSO (50 μl for 10 days) or withaferin A (WA) (7.5 mg/kg for 2 days and 3.5 mg/kg for 8 days) after tumor establishment. Upper panels: Microvessel density (MVD) of excised tumors from each treatment group (DMSO, left panel; WA, right panel) was visualized using formalin-fixed, paraffin-embedded material sectioned at four to five microns-thick. Samples were stained with antibody to CD-34 and detected through the use of indirect avidin-biotin-peroxidase methodology. Nuclei were counterstained with hematoxylin and sections were evaluated by light microscopy. Lower Panel: Vascular density was quantitated by light microscopy based on the methods of the Weidner research group (**P value <0.01). Unpaired Student's t-test used to calculate P values. Error bars: s.d.

`CC1=C(CO)C(=O)OC([C@@H](C)C2CCC3C4C[C@H]5O[C@]56[C@@H](O)C=CC(=O)[C@]6(C)C4CC[C@@]32C)C1` (stereo partly shown) [Withaferin A]: in data set [1], the “inhibition of endothelial cell network formation” value is recorded as “disrupts the endothelial cell network”. In addition, the “inhibition of tumor cell migration and invasion, prostate cancer cells” value in data set [2] is “inhibit tumor cell migration and invasion”. In addition, in data set [3], the “anti-oxidant defense response in astrocytes” value is “triggers a robust anti-oxidant defense response” and the “transcriptional heat shock response in astrocytes” value is recorded as “induction of an adaptive transcriptional response that includes classic elements of the heat shock response”. Further, the “concentrations that did not significantly impair MTT reduction by PC12 cells” value in data set [4] (data not shown) is given as “up to 10 μM”. In data set [4] (tebufenozide-induced, 48 hour, MTT, FIG. 15), the “rescue of HttQ103 toxicity in PC12 cells” value is reported as “a low nanomolar concentration of WA effectively rescued toxicity”. The “inhibition of tumor cell migration and invasion, Ewing's sarcoma cells” value in data set [5] is “inhibit tumor cell migration and invasion”. Moreover, the “induction of F-actin aggregation” value in data set [6] is listed as “induced F-actin aggregation”. Also, the “HSF1 dependence of heat shock protein (Hsp72) induction” value in data set [7] is recorded as “requires Heat Shock Factor 1 (HSF1)”. Also, the “inhibition of tumor vascularization (vascular density)” value in data set [8] is on record as “inhibits tumor vascularization”.
